From PubChem BioAssay (Tox21)
Where “and” joins values, the source holds several entries; their conditions need not be identical. Equal values may be shown once. Inconclusive results, whose numbers are uncertain, are shown with a selection of clear calls. Where the call is inconclusive, the potency comes from a doubtful curve fit. The source holds several records for some structures; these can differ, active in one and inactive in another. Calls of active or inactive are those of the source. Calls follow the shape of the dose curve; as a rule, active = well fitted inhibition curve with a large enough effect in the repeat runs; inconclusive = weak or mixed curves; inactive = no such curve, though single readings can be large or run the other way.

Each molecule was assayed against Cytochrome P450 1A2 (Homo sapiens) (UniProt P05177) (assay: Cytochrome P450 Family 1 Subfamily A Member 2 (CYP1A2) small molecule antagonists: luciferase reporter qHTS assay (AID 1671199; also: nearly all actives have a fitted effect of over 50% in size)). Conditions: P450-Glo CYP1A2 enzyme, luciferin luminescence, 1 h; series mostly up to 115 µM.
Method in brief: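 Compounds were incubated with CYP1A2 and a luminogenic proluciferin substrate for 10 min at room temperature before the reaction was started with NADPH regeneration solution. After 1 h, detection reagent was added and light output, proportional to CYP activity, was recorded.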
Potency is read from the fitted curve at half-maximal effect; tags tell the direction and shape of the fitted curve.

UniProt P05177, sequence (P05177 whole entry, looked up): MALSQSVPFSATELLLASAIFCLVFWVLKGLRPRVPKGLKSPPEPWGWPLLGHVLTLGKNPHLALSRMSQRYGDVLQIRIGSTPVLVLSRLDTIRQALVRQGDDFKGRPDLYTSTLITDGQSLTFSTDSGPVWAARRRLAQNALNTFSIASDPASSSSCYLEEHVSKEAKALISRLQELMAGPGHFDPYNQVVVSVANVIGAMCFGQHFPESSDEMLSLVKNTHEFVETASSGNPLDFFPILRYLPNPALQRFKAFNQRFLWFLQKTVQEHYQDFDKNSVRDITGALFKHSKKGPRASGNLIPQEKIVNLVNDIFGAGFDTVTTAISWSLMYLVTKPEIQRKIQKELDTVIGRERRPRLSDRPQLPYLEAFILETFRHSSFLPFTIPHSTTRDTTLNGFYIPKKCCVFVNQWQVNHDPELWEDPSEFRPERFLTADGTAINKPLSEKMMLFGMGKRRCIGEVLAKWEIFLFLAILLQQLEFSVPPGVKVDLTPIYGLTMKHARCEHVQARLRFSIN

| SMILES | Potency |
| --- | --- |
| O=C(NC(=O)c1c(F)cccc1F)Nc1cc(Cl)c(OC(F)(F)C(F)F)c(Cl)c1 | inconclusive: 44.8 µM [inhibitor, partial curve] |
| Cc1cc(Cl)ccc1OC(C)C(=O)O (stereo not given) | inconclusive: 39.3 µM [inhibitor, partial curve] and inactive |
| S=C(SSC(=S)N1CCCCC1)N1CCCCC1 | inconclusive: 4.56 µM [inhibitor, full curve] |
| CC(C)OC(=O)C(O)(c1ccc(Cl)cc1)c1ccc(Cl)cc1 | inconclusive: 35.6 µM [inhibitor, partial curve] |
| CCC(C)c1cc([N+](=O)[O-])cc([N+](=O)[O-])c1O (stereo not given) | inactive and active: 63.3 µM |
| Cc1c(COC(=O)[C@@H]2[C@H](/C=C(\Cl)C(F)(F)F)C2(C)C)cccc1-c1ccccc1 | inconclusive: 69.4 µM [inhibitor, partial curve, poor fit] and inactive |
| CCOP(=S)(OCC)Oc1cc(C)nc(C(C)C)n1 | inconclusive: 40.2 µM [inhibitor, partial curve] |
| O=C1C(I)=CC(=C(c2cc(I)c(O)c(I)c2)c2ccccc2C(=O)O)C=C1I | inactive |
| CC(C)(C#N)C(C)(C)C#N | inconclusive: 64 µM [inhibitor, partial curve] |
| O=S1(=O)OCC2C(CO1)C1(Cl)C(Cl)=C(Cl)C2(Cl)C1(Cl)Cl (stereo not given) | active: 31.7 µM |
| Cc1ccc2ccccc2c1 | inconclusive: 68.6 µM [inhibitor] |
| CC(C)=CC1C(C(=O)OCc2coc(Cc3ccccc3)c2)C1(C)C (stereo not given) | inconclusive: 40 µM [inhibitor] |
| COc1ccccc1OC | inactive |
| O=C(O)c1cc(Oc2ccc(C(F)(F)F)cc2Cl)ccc1[N+](=O)[O-] | inconclusive: 30.9 µM [inhibitor, partial curve, poor fit] |
| CC(O)C(=O)[O][Hg][c]1ccccc1 (stereo not given) | active: 17.8 µM |
| CCCCOCN(C(=O)CCl)c1c(CC)cccc1CC | inconclusive: 63.3 µM [inhibitor, partial curve] |
| CNC(=O)CSP(=O)(OC)OC | inconclusive: 71 µM [inhibitor, partial curve, poor fit] |
| CC(=O)[O][Sn]([c]1ccccc1)([c]1ccccc1)[c]1ccccc1 | inconclusive: 71 µM [inhibitor, partial curve] |

| SMILES | Potency |
| --- | --- |
| CCCCC/C=C\C/C=C\C/C=C\C/C=C\CCCC(=O)NCC(=O)O | inactive |
| Nc1ccc(-c2ccc(N)c(N)c2)cc1N | inconclusive: 12.6 µM [inhibitor, full curve] |
| ClC(Cl)=C(c1ccc(Cl)cc1)c1ccc(Cl)cc1 | active: 5.78 µM and active: 5.64 µM |
| CC(C)[C@@H](C(=O)O[C@@H](C#N)c1cccc(Oc2ccccc2)c1)c1ccc(Cl)cc1 | inconclusive: 35.6 µM [inhibitor, partial curve] |
| Cc1ccc([N+](=O)[O-])[c]2c1[O][Hg]2 | active: 3.23 µM |
| C=C(C)[C@H]1Cc2c(ccc3c2O[C@@H]2COc4cc(OC)c(OC)cc4[C@@H]2C3=O)O1 | inactive |
| Oc1cc(Cl)cc(Cl)c1 | active: 32 µM |
| c1ccc(C2CC2)c(OCC2=NCCN2)c1 | inconclusive: 14.4 µM [inhibitor, partial curve] |
| COc1cccc(C(=O)CCN[C@@H](C)[C@H](O)c2ccccc2)c1 | active: 24.5 µM |
| C=CC(=O)OCC(CC)(COC(=O)C=C)COC(=O)C=C | inconclusive: 46 µM [inhibitor, partial curve] |
| CCOC(=O)CC(=O)CCl | inconclusive: 39.9 µM [inhibitor, partial curve] |
| O=[N+]([O-])c1ccc(F)c([N+](=O)[O-])c1 | inactive |
| C=CCN1C[C@H](C)N([C@H](c2ccc(C(=O)N(CC)CC)cc2)c2cccc(OC)c2)C[C@H]1C | inactive |
| O=[N+]([O-])c1cccc(O)c1 | inconclusive: 63.5 µM [inhibitor, partial curve] |
| CCCC[n+]1cccc(C)c1 | inconclusive: 71.3 µM [inhibitor, partial curve] and inconclusive: 35.7 µM [inhibitor, partial curve] |
| O=C(O)COc1ccc(Cl)cc1 | inconclusive: 79.6 µM [inhibitor, partial curve, poor fit] |
| CN1CSC(=S)N(C)C1 | inactive and active: 39.8 µM |
